Data on six compounds can be found in the supplement of paper PMC4604168 (melanoma cell lines).

What all share (test): cell count relative to DMSO control; melanoma cells; higher = more viable cells
One assay concerns MeWo. The following applies: library dose: low library concentration; 72 h.
Another assay deals with RPMI7951. Conditions: library dose: low library concentration; 72 h.
Another assay relates to RVH-421. The following applies: library dose: low library concentration; 72 h.
The subject of a further assay is SkMel28. The following applies: library dose: low library concentration; 72 h.
For a further assay, the system named is SkMel30. The following applies: library dose: low library concentration; 72 h.
Another assay concerns SkMel5. Conditions: library dose: low library concentration; 72 h.
In the next assay the test system is UACC257. Conditions: library dose: low library concentration; 72 h.
In another assay the test system is UACC62. The following applies: library dose: low library concentration; 72 h.
The next assay has as its system WM115. The following applies: library dose: low library concentration; 72 h.
The next assay deals with WM1716. The following applies: library dose: low library concentration; 72 h.
Another assay deals with WM1745. The following applies: library dose: low library concentration; 72 h.
A further assay concerns WM3526. The following applies: library dose: low library concentration; 72 h.
The test system of the next assay is WM3619. Conditions: library dose: low library concentration; 72 h.
Another assay deals with WM451Lu. Conditions: library dose: low library concentration; 72 h.
A further assay deals with SkMel2. The following applies: library dose: low library concentration; 72 h.
Another assay has as its system 501Mel. Conditions: library dose: standard library concentration; 72 h.
The test system of another assay is A101D. The following applies: library dose: standard library concentration; 72 h.
A further assay relates to A2058. The following applies: library dose: standard library concentration; 72 h.
For the next assay, the system named is A375. The following applies: library dose: standard library concentration; 72 h.

The structures appear in SMILES notation. Some of the results follow. Many values rest on one well or one pass, so single values are uncertain.

In the case of `CO[C@H]1C[C@@H]2CC[C@@H](C)[C@@](O)(O2)C(=O)C(=O)N2CCCC[C@H]2C(=O)O[C@H]([C@H](C)C[C@@H]2CC[C@@H](OCCO)[C@H](OC)C2)CC(=O)[C@H](C)/C=C(\C)[C@@H](O)[C@@H](OC)C(=O)[C@H](C)C[C@H](C)/C=C/C=C/C=C/1C` [everolimus] + CCc1ccc(CCOc2ccc(CC3SC(=O)NC3=O)cc2)nc1 [pioglitazone] (first compound 0.02 µM, partner dose 2 µM), the cell count in the assay with MeWo was found to be 73.1%; in the assay on RPMI7951, 92.3%; with RVH-421 it was 73.4%; in the assay with SkMel28, 65.6%; with SkMel30 it was 61.8%; with SkMel5, 116%. Further, the cell count with UACC257 turned out to be 70.7%; in the assay with UACC62, 72.7%; in the assay with WM115, 85.1%; with WM1716, 79.2%; with WM1745 it was 76.6%; in the assay on WM3526, 71.6%. For the same compound, the cell count with WM3619 is 87.8%; in the assay on WM451Lu it was 81.4%.

With `Nc1ncn([C@H]2C[C@H](O)[C@@H](CO)O2)c(=O)n1` [decitabine] + O=C(O)C(=O)Nc1sc2c(c1C(=O)O)CCNC2 [TCS401] (first compound 0.1 µM, partner dose 1.66667 µM), the cell count came out at 103% with MeWo; 89.4% in the assay with RPMI7951; 85% in the assay with RVH-421; 97% with SkMel28; 88.8% with SkMel30; 95.8% with SkMel5. Further, the cell count turned out to be 92.6% in the assay with UACC257; 70% with UACC62; 78.6% in the assay on WM115; 82.2% in the assay on WM1716; 78.8% in the assay on WM1745; 75.8% in the assay with WM3526. The figures for the cell count in the assay with WM3619 and in the assay on WM451Lu were 95.2% and 99.4%, respectively.

As to `CC(=O)O[C@@]12CO[C@@H]1C[C@H](O)[C@@]1(C)C(=O)[C@H](O)C3=C(C)[C@@H](OC(=O)[C@H](O)[C@@H](NC(=O)OC(C)(C)C)c4ccccc4)C[C@@](O)([C@@H](OC(=O)c4ccccc4)[C@H]21)C3(C)C` [Docetaxel] + COc1cc2ncnc(Nc3ccc(Oc4ccccc4)cc3)c2cc1OC [SrcI1] (first compound 0.0001 µM, partner dose 2 µM), the cell count in the assay with MeWo amounted to 38.9%; with RPMI7951, 36.9%; in the assay with RVH-421 it was 65.7%; with SkMel28, 32.5%; in the assay on SkMel2 it was 41.7%; in the assay on SkMel30, 41.6%. For the same compound, the cell count in the assay on SkMel5 came to 68.2%; with UACC257 it was 52.1%; in the assay on UACC62, 48.6%; in the assay with WM115 it was 53.8%; in the assay with WM1716, 36.4%; in the assay on WM1745 it was 42.4%. For the same compound, the cell count came out at 43% with WM3526, 81.8% in the assay on WM3619 and 60% in the assay on WM451Lu.

Turning to `CC(=O)O[C@@]12CO[C@@H]1C[C@H](O)[C@@]1(C)C(=O)[C@H](O)C3=C(C)[C@@H](OC(=O)[C@H](O)[C@@H](NC(=O)OC(C)(C)C)c4ccccc4)C[C@@](O)([C@@H](OC(=O)c4ccccc4)[C@H]21)C3(C)C` [Docetaxel] + CC(C)C[C@H](NC(=O)[C@H](Cc1ccccc1)NC(=O)c1cnccn1)B(O)O [Bortezomib] (first compound 0.0001 µM, partner dose 0.001 µM), the cell count with MeWo is 38.7%; with RPMI7951, 25.1%; in the assay on RVH-421 it was 73%; in the assay on SkMel28, 47.3%; in the assay with SkMel30, 36.2%; in the assay on UACC62, 40.3%. In addition, the cell count turned out to be 64.3% in the assay with WM115; 31.5% in the assay on WM1716; 48.2% in the assay on WM1745; 50.6% in the assay with WM3526; 70.7% in the assay on WM3619; 55.8% with WM451Lu.

In the case of `CC(=O)c1c(C)c2cnc(Nc3ccc(N4CCNCC4)cn3)nc2n(C2CCCC2)c1=O` [palbociclib] + COc1ccc(COc2ccc(Cc3cnc(N)nc3N)cc2OC)cc1 [GW2580] (first compound 0.04 µM, partner dose 1 µM), the cell count turned out to be 87.7% in the assay with MeWo; 70.6% in the assay on RPMI7951; 104% with RVH-421; 75.8% with SkMel28; 81.3% in the assay on SkMel30; 70.6% in the assay with SkMel5. Also, the cell count with UACC257 amounted to 69.1%; in the assay with UACC62, 77.4%; with WM115 it was 72.9%; with WM1716, 55.7%; with WM1745 it was 66.3%; in the assay on WM3526 it was 74.8%. The values for the cell count in the assay on WM3619 and with WM451Lu were 81.2% and 78.4%, respectively.

`CC(=O)c1c(C)c2cnc(Nc3ccc(N4CCNCC4)cn3)nc2n(C2CCCC2)c1=O` [palbociclib] + c1cc(-c2cnn3cc(-c4ccc(OCCN5CCCCC5)cc4)cnc23)ccn1 [Dorsomorphin] (first compound 0.2 µM, partner dose 2 µM): the cell count amounted to 63.8% with 501Mel, 59.5% in the assay with A101D, 92.8% in the assay on A2058 and 76.5% in the assay with A375.
